Measured values: PubChem BioAssay AID445 (National Center for Advancing Translational Sciences (NCATS), 2006)
Out of some 110,000 compounds screened, about 40 (0.04%) were called active. The shares of active, inactive and inconclusive entries below differ from those in the screen. Calls come from the whole dose curve; as a rule, active = well fitted curve in the direction sought with a large enough effect in the signal ratio (not every such curve was filed as active); inconclusive = small, poorly fitted or top-dose-only effect, or a change in a side signal; inactive = flat fitted curve, though single readings scatter; the % refers to the signal ratio. A potency beside an inconclusive call is a rough fit, not a confirmed value.

test: IkB Signaling; settings: ABC-DLBCL IkBa-CBG/CBR dual luciferase ratio (green luciferase fused to IkBa over red control in OCI-Ly3 lymphoma cells), 4 h; IkBa stabilization activation: at 57.1 µM (top of the series), scaled: untreated 0%, proteasome inhibitor 100% unless noted;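 for IkBa stabilization activation: 0% = basal untreated cells and 100% = reference inhibitor full response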
Outline: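 Curves were fitted separately to fusion (green), unfused (red) and ratio luminescence, then classed by r2, magnitude and activity. Cells: OCI-Ly3, 4 h compound plus doxycycline at 37C; 10 uM MG-132 defined full response.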
Potency is the fitted concentration of half-maximal effect.

Structure (SMILES) | IkBa stabilization activation | Potency
Cc1ccc(-c2noc(CN(C(=O)COc3cc(C)cc(C)c3C)C(C)C)n2)cc1 | inconclusive: 0.42% [signal inhibitor] | –
O=C(NCCCN1CCOCC1)c1csc2c1CCCC2 | inactive | –
Cc1cccc(C)c1OC[C@@H](N)C(C)C | inactive | –
Cn1c(=O)c2c(c3ccccc31)OC(=O)CC2c1cccc(F)c1 (stereo unspecified) | inconclusive: 15.9% [signal inhibitor] | –
O=C(Nc1ccc(Cl)cc1)N1CCN(c2ccc3nnc(-c4ccccc4)n3n2)CC1 | inconclusive: 6.26% [signal inhibitor] | –
O=C(C1CCC(Cn2c(=O)c3sccc3n(Cc3ccccc3F)c2=O)CC1)N1CCCCC1 (stereo unspecified) | inconclusive: 2.99% [signal inhibitor] | –
COc1ccccc1N(CC(=O)NCCSCc1cccc(Cl)c1)S(C)(=O)=O | inconclusive: 2.38% [signal inhibitor] | –
CC(C)NC(=O)C1CCN(C(=O)c2cc3sccc3n2Cc2ccc(Cl)cc2)CC1 | inconclusive: 8.29% [signal inhibitor] | –
Cc1cc(C)c(NC(=O)c2ncoc2-c2ccco2)c(C)c1 | inconclusive: 0.98% [signal inhibitor] | –
COC(=O)c1cnn2c(C)c(Cc3c(C)cc(C)cc3C)c(C)nc12 | inconclusive: 1.36% [signal inhibitor] | –
Cc1cccc(CNc2ncncc2-c2ccccc2Cl)c1 | inactive: 0.663% [at 11.4 µM, scaled: untreated 0%, proteasome inhibitor 100%] | –
COc1ccc(NC(=O)CCn2c(=O)c3cccn3c3ccccc32)c(OC)c1 | inconclusive: -1.22% [signal inhibitor] | –
Cc1nc2ccccc2c2nc3ccccc3n12 | inactive | –
Cc1[nH]nc(-c2ccc(O)c(C)c2O)c1-c1cnn(-c2ccccc2)c1 | inconclusive: -10.7% [signal inhibitor] | –
Cc1ccc2c(=O)cc(C(=O)Nc3ccc(S(=O)(=O)N(C)Cc4ccccc4)cc3)oc2c1 | inactive | –
CCNc1ccc2c(Cl)cc(=O)oc2c1 | – | inconclusive: 5.01 µM [signal inhibitor, partial curve]
CC(=O)c1ccc(NC(=O)CN(C)S(=O)(=O)c2cccc3nsnc23)cc1 | inconclusive: 3.36% [signal inhibitor] | –
COc1ccccc1-c1cc2nc(C)c(CCC(=O)NCc3cccc(Cl)c3)c(C)n2n1 | – | inconclusive: 31.6 µM [signal inhibitor, partial curve]
Cc1c(C(=O)O)nc(/C=C\C(=O)O)[nH]c1=O | inactive: -0.971% [at 11.4 µM, scaled: untreated 0%, proteasome inhibitor 100%] | –
CCCCn1c(C(C)NC(=O)c2ccccc2)nc2ccccc21 (stereo unspecified) | inconclusive: 1.14% [signal inhibitor] | –
Cc1noc(C)c1-c1nc(NCc2cccnc2)c2ccccc2n1 | inactive: 4.25% [at 11.4 µM, scaled: untreated 0%, proteasome inhibitor 100%] | –
COC(=O)c1c(NC(=O)CS(=O)(=O)c2ccc(C)cc2)sc2c1CCCC2 | inconclusive: -1.01% [signal inhibitor] | –
O=C(Nc1cccc(Cl)c1)c1ccc(F)c(S(=O)(=O)N2CCC3(CC2)OCCO3)c1 | inconclusive: -0.219% [signal inhibitor] | –
CCN(C(=O)Cn1nnc2sc(-c3ccccc3)cc2c1=O)c1cccc(C)c1 | inconclusive: 3.61% [signal inhibitor] | –

Structure (SMILES) | IkBa stabilization activation | Potency
Cc1cc(NC(=O)CCNS(=O)(=O)c2ccc3c(c2)oc(=O)n3C)ccc1Br | inconclusive: 3.53% [signal inhibitor] | –
CCN(CC)C(=O)c1cc(-c2ccc(Cl)cc2)on1 | inconclusive: 13.8% [signal inhibitor] | –
O=C(Nc1nccs1)c1ccc(COc2ccc(F)cc2)o1 | inactive | –
Cc1noc(C)c1C(=O)N1CCC2(CC1)CN(c1ccccn1)C2 | inactive: -0.695% [at 11.4 µM, scaled: untreated 0%, proteasome inhibitor 100%] | –
O=C(Nc1ccc(F)cc1F)c1cc2nc(-c3ccco3)cc(C(F)(F)Cl)n2n1 | inactive | –
O=[N+]([O-])c1ccc2c(c1)c(S(=O)(=O)O)cc1nonc12 | inactive: -0.778% [at 11.4 µM, scaled: untreated 0%, proteasome inhibitor 100%] | –
CC#CCOC(=O)C1=CCCN(C)C1 | inactive | –
Cc1ccc(S(=O)(=O)c2c(C)nn(C(C)(C)C)c2OC(=O)c2cccs2)cc1 | inactive | –
CCc1nn(CC(=O)NCc2ccccc2Cl)c(=O)c2cccn12 | inconclusive: 8.35% [signal inhibitor] | –
Cc1nc(-c2ccc(S(=O)(=O)Nc3ccc(C)c(N(C)C)c3)cc2)co1 | inconclusive: 3.17% [signal inhibitor] | –
O=S(=O)(c1ccccc1)c1nc(-c2cccs2)oc1SCc1ccc(F)cc1 | inactive | –
COc1ccc(NC(=O)c2cnc[nH]2)cc1 | inactive | –
COc1ccc(S(=O)(=O)c2cc(NS(=O)(=O)c3ccc(Cl)cc3)c(C)c(C)c2O)cc1 | inconclusive: 8.48% [signal inhibitor] | –
CCc1ccccc1NC(=O)c1cc(S(=O)(=O)N2CCCc3ccccc32)ccc1F | inconclusive: 1.22% [signal inhibitor] | –
CCOc1cc(S(=O)(=O)n2c(C)nc3ccccc32)ccc1F | inactive | –
CC(C)CCn1c(=O)c2sccc2n2c(CCCC(=O)NCc3ccc(F)cc3)nnc12 | inconclusive: 6.13% [signal inhibitor] | –
NC1(C(=O)O)CC(C(=O)O)C1 (stereo unspecified) | inactive | –
Cc1cccc(N2CCN(C(=O)CCn3c(=O)c4cccn4c4cccnc43)CC2)c1C | inconclusive: -2.45% [signal inhibitor] | –
CCOc1ccc(N(C)C(CNS(=O)(=O)c2ccccc2)c2ccccc2)cc1 (stereo unspecified) | inconclusive: 1.43% [signal inhibitor] | –
Cc1ccn2c(=O)c(C(=O)NC(C)c3ccccc3)c(O)nc2c1 (stereo unspecified) | inactive | –
N#Cc1cccc(NC(=O)c2cc3c(s2)-c2ccc(Cl)cc2SC3)c1 | inactive | –
COc1ccccc1N1CCN(C(=O)c2cc(-c3ccccc3O)on2)CC1 | – | inconclusive: 6.31 µM [signal inhibitor]
COc1ccccc1-c1ccc2ncnc(NCCNC(C)=O)c2c1 | inactive: 3.28% [at 11.4 µM, scaled: untreated 0%, proteasome inhibitor 100%] | –
COc1ccc(Cn2c(=O)n(Cc3ccco3)c(=N)c3c4c(sc32)COC(C)(C)C4)cc1 | inactive | –

Structure (SMILES) | IkBa stabilization activation | Potency
Cc1cccc(NC(=O)C2CCCN(c3nc4ccccc4s3)C2)c1C (stereo unspecified) | inconclusive: 2.4% [signal inhibitor] | –
Cc1ccc(-c2csc3nnc(SCC(=O)N4CCN(Cc5ccccc5)CC4)n23)cc1 | inactive | –
Cc1ccc(CCNC(=O)c2ccc(CS(=O)(=O)Cc3ccccc3F)o2)cc1 | inconclusive: 0.442% [signal inhibitor] | –
COc1ccc(S(=O)(=O)N2CCN(Cc3cccc(Cl)c3)CC2)cc1 | inconclusive: 9.24% [signal inhibitor] | –
COc1cccc2cc(-c3nc(-c4ccc(C)cc4)c(C)s3)c(=O)oc12 | inactive | –
O=S(=O)(Nc1ccc(Cl)cc1)c1cccc(S(=O)(=O)c2ccc(Cl)c(Cl)c2)c1 | inconclusive: -5.47% [signal inhibitor] | –
Cc1cc(Nc2ccc(F)cc2)nc(-n2nc(C)cc2C)n1 | inactive | –
COc1ccc2c(c1OC)C(=O)N(c1cccc(C)c1)C2 | inactive | –
CCCCN(C)C(=O)Cn1c(SCC(=O)Nc2ccc(C)c(C)c2)nc2ccccc21 | inconclusive: 5.38% [signal inhibitor] | –
N=C(N)C(N=Nc1ccccc1)C(=N)N (stereo unspecified) | inactive: 0.615% [at 11.4 µM, scaled: untreated 0%, proteasome inhibitor 100%] | –
Cc1nc2ccccc2n1CCc1nc2c3ccccc3nc(SCc3ccc(F)cc3)n2n1 | inactive | –
COc1ccccc1N1CCN(CC(O)COc2ccc(C)cc2C(C)(C)C)CC1 (stereo unspecified) | inconclusive: -4.91% [signal inhibitor] | –
O=C(N1CCOCC1)N1CCN(c2ccccn2)CC1 | inactive | –
CNc1nc(-c2ccc(Cl)cc2)cs1 | inactive | –
CCOC(=O)c1c(C)oc2nc(C)nc(NCC3CCN(Cc4cccc(Cl)c4)CC3)c12 | inconclusive: 0.116% [signal inhibitor] | –
Cc1ccc(S(=O)(=O)NCCc2csc3nc(-c4ccccc4C)nn23)cc1 | inconclusive: -0.74% [signal inhibitor] | –
O=S(=O)(c1cccs1)N1CCN(CC(O)COc2cc(Cl)ccc2Cl)CC1 (stereo unspecified) | inconclusive: 0.888% [signal inhibitor] | –
CCn1cc(Cl)c(C(=O)Nc2nc3ccccc3n2CCN2CCCCC2)n1 | inactive | –
Cc1ccc(CNC(=O)C(C)n2ccc3cc(S(=O)(=O)N4CCCC4)ccc32)cc1 (stereo unspecified) | inconclusive: -1.25% [signal inhibitor] | –
O=C(Nc1nnc(SCc2cc(=O)n3cc(Cl)ccc3n2)s1)c1cccc(F)c1 | inconclusive: -0.991% [signal inhibitor] | –
O=C(c1ccc2c(Cl)c3c(nc2c1)CCCC3)N1CCN(c2ccccc2F)CC1 | inconclusive: 0.961% [signal inhibitor] | –
CCc1ccc(-c2cn(-c3nc(C)cc(C)n3)c(=N)o2)cc1 | inconclusive: -3.85% [signal inhibitor] | –
CCC(C(=O)N1CCN(c2ccccc2)CC1)n1nc(C)c2sc3ccccc3c2c1=O (stereo unspecified) | inconclusive: 10.4% [signal inhibitor] | –
